Measured values published in PubChem BioAssay AID1508624 (National Center for Advancing Translational Sciences (NCATS), 2021).
The campaign covered roughly 48,000 compounds. About 120 (0.25%) were called active. Roughly 4% stayed inconclusive and do not appear here. The call rests on the fitted dose curve; in most records, active means well fitted activation curve with a large enough effect; inconclusive means small, poorly fitted or top-dose-only effect, or another doubt; inactive means no such curve, though single readings can be large or run the other way. This is one part of the list.

Assay: Primary qHTS for Identification of Small Molecule Activators of Huntingtin-Antisense Promoter Activity; further: nearly all actives have a fitted effect of over 55% in size
Conditions: HEK293 HTT-AS promoter firefly luciferase reporter (activity 0% = vehicle and -100% = no light), 24 h; series mostly up to 57.5 µM; activity change, positive = activation: at the top concentration
Summary of the method: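 Luminescence was read after Dual-Glo reagent and a 10 min room-temperature incubation. Values were normalized to vehicle (0% activity) and zero RLU (-100% activity). Reporter HEK293 cells had been exposed to compounds (up to 57.5 uM final) for 24 h.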

Activity change, positive = activation, inactive:
CCn1c2c(c(=O)n3ncc(C(=O)Nc4cc(Cl)ccc4C)c13)CN(Cc1ccc(OC)cc1)CC2 -34.7%, Cc1ccn2c(Nc3ccc(C(C)C)cc3)c(-c3cccs3)nc2c1 -37.2%, COc1cc(OC)c(NC(=O)C2=C(C)C(=O)OC23CCCCCC3)cc1Cl -20.1%, CC(C)C[C@H](NC(=O)CNC(=O)c1cc(Cl)ccc1Cl)B(O)O -48.6%, CC(C)CN(CCCNC(=O)c1cc(=O)[nH]c2ccc(S(=O)(=O)N3CCCCCC3)cc12)CC(C)C 21%, CC(=O)N1c2nc(C(C)C)nn2C2(CCCCC2)[C@@H]2CCCC[C@@H]21 -13.5%, CCOc1ccc2oc(=O)cc(CN3CCN(c4cc(C)ccc4C)CC3)c2c1 -11.8%, CCc1ccc(NC(=O)CN2CCCN(Cc3cccc(Cl)c3)S2(=O)=O)cc1 -26.2%, COC(=O)c1cc2sc(C)cc2n1CC(=O)Nc1ccc(C)c(C)c1 -9.73%, CCOc1ccc(NC(=O)c2cc(S(=O)(=O)N3CCCCCC3)cn2C)cc1 -7.78%, Cc1c2cnn(-c3ccccc3)c(=O)c2c(C)n1CC(=O)NCCc1ccc(Cl)cc1 -9.12%, COc1ccc2c(c1)c1c(c(=O)n(-c3ccc(F)c(Cl)c3)c(=O)n1CC(=O)N1CCCC1)n2C -2.73%, CC(=O)N1CCc2c(sc3c2c(=O)n(-c2ccccc2)c(=O)n3CC(=O)Nc2ccccc2)C1 -14.5%, COc1cc(CNC(=O)c2ccc3c(c2)N(C)C(=O)C2CCCCN32)cc(OC)c1OC (stereo not drawn) -17.8%, CCC1CN(C(=O)N2CCC(C(=O)N3CCN(c4cccc(C)c4C)CC3)CC2)c2ccccc2O1 (stereo not drawn) -45.6%, Cc1ccc(Cl)cc1NC(=O)CCC(=O)N1CC(C)Sc2ccccc21 (stereo not drawn) -18.3%, O=C(NCCc1ccc(Cl)cc1)C1CCN(c2ncnc3c2nc2n3CCCCC2)CC1 -19.3%, Cc1ccc(-n2c(=O)c3c4c(sc3n(CC(=O)c3ccc(Cl)cc3)c2=O)CCC4)cc1C -3.7%, CN(Cc1ccco1)C(=O)c1ccc2c(c1)N(Cc1ccccc1F)C(=O)c1ccccc1S2 -32.2%, Cc1ccc(S(=O)(=O)Cc2ccc(C(=O)N3CCN(c4cccc(C)c4C)CC3)o2)cc1 -41.2%, COc1ccc(C(=O)OCc2cc(=O)n3nc(-c4cccs4)sc3n2)cc1 5.23%, CCC(Cn1nnc2ccccc2c1=O)NC(=O)Nc1cccc(C)c1C (stereo not drawn) -1.96%, Cc1ccc(NC(=O)C2CCCN(c3nnc(C)c4c(C)n(-c5ccccc5)nc34)C2)c(Cl)c1 (stereo not drawn) -6.63%, O=[N+]([O-])c1cc(-c2nc(-c3ccccc3)no2)ccc1N1CCCCC1 -83.8%, CCC(=O)N1CCc2cc(Br)cc(S(=O)(=O)CCC(=O)N3CCN(c4cccc(C(F)(F)F)c4)CC3)c21 -18.5%, CC1=C(C(=O)Nc2ccccc2)C(c2ccncc2)n2nc(SCc3ccccc3Cl)nc2N1 (stereo not drawn) -20.6%, O=C(Cn1c(=O)n(Cc2ccco2)c(=O)c2ccccc21)Nc1ccc(Cl)cc1Cl -16.3%, O=C(O)c1ccc(CNCc2ccc(Cl)cc2)s1 -20.4%, Cc1ccc2nc(Nc3cccc(Cl)c3C)c(-n3nc(C)cc3C)nc2c1 -1.36%, CC(C)CN(C(=O)c1cccc(S(=O)(=O)N2CCCCC2)c1)C1CCS(=O)(=O)C1 (stereo not drawn) 0.381%, CCOC(=O)c1ccc(NC(=O)Cn2c(=O)n(-c3ccc(C)cc3)c(=O)c3c2cnn3C)cc1 -15.2%, Cc1ccccc1NC(=O)Cn1c(SCC(=O)Nc2ccc(F)cc2)nc2ccccc21 -23.6%, Cc1c(-c2nc(-c3ccc4c(c3)OCO4)no2)nnn1-c1ccc(Br)cc1F 12.7%, Cc1ccc(CNC(=O)Cc2c(C)c3cc4c(C)coc4cc3oc2=O)cc1 -2.08%, O=C(COc1ccccc1Cl)OCc1cc(=O)n2nc(-c3cccs3)sc2n1 8.29%, CCOC(=O)c1c(NC(=O)c2nc(SCC)ncc2Cl)sc(C(C)=O)c1C 4.4%, COc1ccc([C@@H]2CC(=O)c3c(O)cc(O[C@@H]4O[C@H](CO[C@@H]5O[C@@H](C)[C@H](O)[C@@H](O)[C@@H]5O)[C@@H](O)[C@H](O)[C@@H]4O)cc3O2)cc1O, CCN(c1ncnc2c1cnn2-c1ccc(C)cc1)C1CCCCC1 -73.3%, Cc1cc(Nc2ccc(C)c(Cl)c2)n2nc(Cc3ccccc3)nc2n1 -26.2%, COCCn1c(=O)[nH]c2cc(C(=O)NCc3ccccc3Cl)ccc2c1=O -18.7%, CCOc1ccc(NC(=O)c2c(Nc3ccc(OC)cc3OC)sc(C(=O)c3ccc(Cl)cc3)c2N)cc1 -9.4%, CCOc1ccc(NC(=O)CSc2nc(-c3ccc(OC)cc3)nc3c2Cc2c(CO)cnc(C)c2O3)cc1 -5.94%, CC[C@H]1CN2CCc3cc(OC)c(OC)cc3[C@@H]2C[C@@H]1C[C@H]1NCCc2cc(OC)c(OC)cc21 -38.5%, CCOC(=O)c1cccc(NC(=O)c2cc3sccc3n2Cc2ccc(Cl)cc2)c1 -7.09%, CCOc1ccc(CCNC(=O)CCc2cn(Cc3ccccc3F)c3ccccc23)cc1OCC -22.3%, CCC[C@H]1C[C@H](C(=O)N[C@@H]([C@@H]2O[C@@H](SC)[C@@H](O)[C@@H](O)[C@@H]2O)[C@H](C)Cl)N(C)C1 -5.95%, CC(C)(C)c1ccc(S(=O)(=O)NCc2ccc3c(c2)CCN3C(=O)c2ccccc2)cc1 -44.9%, O=C(Cn1c(=O)ccc2cc(S(=O)(=O)N3CCCC3)ccc21)NCc1ccc(Cl)cc1 -16.3%, O=C(c1ccc(Cl)cc1)N1CCC(c2ccncc2)CC1 -30.4%, CCN(CC)S(=O)(=O)c1ccc2nc(NC(=O)c3cccnc3)sc2c1 -11.3%, COc1cc(-c2noc(-c3ccc(N4CCN(C)CC4)c([N+](=O)[O-])c3)n2)cc(OC)c1OC -7.58%, CCOC(=O)c1cc(S(=O)(=O)NCc2ccccc2)[nH]n1 -6.68%, CCC(CO)NC(=O)C(=O)Nc1c2c(nn1-c1ccc(F)cc1)CSC2 (stereo not drawn) -16.9%, CCOc1ccc(CCNC(=O)c2ccc3c(c2)c(C)c(C)n3C)cc1 -12.8%, COC(=O)c1ccc(NC(=O)CSc2nc(=O)n(Cc3ccco3)c3c2CCC3)cc1 -28.8%, CN1C(=O)CC(C)(c2ccccc2)C1=O (stereo not drawn) -10.5%, COc1cc(C(=O)N(Cc2ccc(C(C)C)cc2)C2CCS(=O)(=O)C2)cc(OC)c1OC (stereo not drawn) -4.54%, COc1cc(NC(=O)c2nnn(Cc3ccc(F)cc3)c2N)cc(OC)c1 0%
